Among all 150,000 compounds or so, about 540 (0.36%) showed an effect of 50% or more. The list shows a part of the results.
test system: Plasmodium falciparum; test: Primary screen in NF54 nanoGlo assay, in single point, at 2uM, 72h; a lower Z score goes with more inhibition; type: functional, Erythrocyte; settings: timepoint 72 hour

With `CC1(C)C[C@@](C)(c2ccc(Br)cc2)c2ccccc2N1C(=O)c1ccccc1` as the molecule, how does the “% Inhibition” value read?
The value was 4%.

What about the Z score of the same molecule?
Its Z score is -0.5.

For `CCCN1C(=O)c2cc(C(=O)Nc3ccc(OC)c(OC)c3)ccc2[C@H]1Nc1ccc(OC)c(OC)c1`, which “% Inhibition” value is on record?
The value was -13%.

And the Z score?
Its Z score is 1.73.

For `C[C@@H](c1ccon1)N(C)c1ccc(-c2nc(-c3ccccc3F)no2)cn1`, which “% Inhibition” value is on record?
The value was -8%.

And the Z score?
The Z score was 0.98.

What does the source list for `CC(C)CCc1noc(CN2C(=O)c3ccccc3CS2(=O)=O)n1`?
% Inhibition: 0%; Z score: 0

Which “% Inhibition” value does the source give for `Cc1ccc(C(=O)NC2(c3ncccn3)CCOCC2)o1` here?
Its value is -5%.

What about the Z score of the same molecule?
The Z score was 0.91.

Which “% Inhibition” value does the source give for `Cc1cc(Cl)cc(C(=O)O[C@@H](C)c2nnc(C)o2)c1` here?
Its value is 12%.

What about the Z score of the same molecule?
Its Z score is -1.6.

Which results are given for `CC1c2[nH]c3ccccc3c2C[C@H]2C(=O)N(c3ccccc3C(=O)NCc3ccccc3)C(=O)N12` (some centres undefined)?
% Inhibition: -1%; Z score: 0.22

For `COc1nccnc1N1CCC[C@H](Cn2ccnc2)C1`, which “% Inhibition” value is on record?
Its value is 1%.

And the Z score?
Its Z score is -0.26.

Which “% Inhibition” value does the source give for `O=C(c1c(F)cccc1F)N1CC[C@H](c2ccc3c(c2)CCO3)C1` here?
Its value is -18%.

What about the Z score of the same molecule?
The Z score was 2.14.

With `O=C(Nc1ccc(-c2cc3ccccc3[nH]2)cc1)[C@@H]1CCCN1C1CCOCC1` as the molecule, how does the “% Inhibition” value read?
Its value is -11%.

What about the Z score of the same molecule?
The Z score was 1.34.

What does the source list for `Cc1nnsc1CNC(=O)N1CCN(Cc2ccc3c(c2)OCO3)CC1`?
% Inhibition: -3%; Z score: 0.5

Which results are given for `Cc1ncsc1C(=O)N1c2ccccc2C[C@@H]1C`?
% Inhibition: -3%; Z score: 0.31

What does the source list for `CCc1ccc(-c2cc3c(=O)n(CC(=O)N4CC(C)CC(C)C4)ncn3n2)cc1` (centres undefined)?
% Inhibition: 32%; Z score: -1.05

How did the “% Inhibition” value turn out when `CCc1nsc(N2CCO[C@@H](CN3CCOCC3)C2)n1` was run?
The value was -21%.

What about the Z score of the same molecule?
The Z score was 2.35.

For `CCc1cnccc1C(=O)N[C@H](c1nccs1)C(F)(F)F`, which “% Inhibition” value is on record?
Its value is 2%.

What about the Z score of the same molecule?
Its Z score is -0.35.

For `Cc1cc(NC(=O)c2ccccc2C(=O)c2ccc(Cl)cc2)ccc1N1CCCC1=O`, which “% Inhibition” value is on record?
The value was -10%.

What about the Z score of the same molecule?
Its Z score is 1.56.

What does the source list for `CC(=O)/C(=N\Nc1ccc(Cl)cc1)N(/C(=N/Nc1ccc(Cl)cc1)C(C)=O)C(C)(C)C`?
% Inhibition: -14%; Z score: 1.51

With `Cc1nc2c(C(=O)NCCC3=CCCCCC3)ccnc2[nH]1` as the molecule, how does the “% Inhibition” value read?
Its value is 7%.

What about the Z score of the same molecule?
The Z score was -1.37.

Which “% Inhibition” value does the source give for `Cc1nc(N(CCO)Cc2nccn2C)c2nc(C)oc2n1` here?
The value was -16%.

And the Z score?
Its Z score is 2.14.

Which “% Inhibition” value does the source give for `CC(=O)/C(=N/Nc1ccc(Cl)cc1)N1CCCc2ccccc21` here?
Its value is -4%.

And the Z score?
Its Z score is 0.55.

With `CN1CCN(C(=O)CCc2cc3n(n2)CCN(Cc2ccncc2)C3)CC1` as the molecule, how does the “% Inhibition” value read?
The value was -3%.

What about the Z score of the same molecule?
The Z score was 0.52.

`Cc1cccc(C2CC2C(=O)N2CCCC(n3cccn3)C2)c1` (centres undefined) was tested. Which “% Inhibition” value did it give?
Its value is -2%.

What about the Z score of the same molecule?
The Z score was 0.24.

Which results are given for `COc1ccc(CCNC(=O)Cc2csc(COc3ccc(C)c(C)c3)n2)cc1`?
% Inhibition: -17%; Z score: 3.29

What does the source list for `Cc1ncc(NC(=O)NCC2CCCCCC2)cn1`?
% Inhibition: -6%; Z score: 0.89

Which “% Inhibition” value does the source give for `CC(C)c1cc(C(=O)N2CC[C@H]2c2cccc(Br)c2)nn1C` here?
The value was -9%.

What about the Z score of the same molecule?
The Z score was 1.48.

For `Cc1c(C(=O)N2C[C@@H]3CCC[C@H](C2)C(=O)N3)ccn1C`, which “% Inhibition” value is on record?
Its value is -14%.

And the Z score?
Its Z score is 2.63.

With `C[C@H]1CN(Cc2cc(-c3ccccc3)on2)Cc2c[nH]nc21` as the molecule, how does the “% Inhibition” value read?
Its value is -5%.

What about the Z score of the same molecule?
The Z score was 0.55.

`CCOC(=O)[C@@H]1CCCCN1C(=O)c1cc(CCc2ccccc2)no1` was tested. Which “% Inhibition” value did it give?
Its value is -8%.

What about the Z score of the same molecule?
The Z score was 1.04.

Which results are given for `CN(Cc1cccnc1)C(=O)c1csc(NC(=O)c2ccc(Cl)cc2Cl)n1`?
% Inhibition: -12%; Z score: 1.69

How did the “% Inhibition” value turn out when `COc1ccccc1C(=O)N1Cc2c(C(=O)NC3CC3)nn(C)c2C1` was run?
The value was -1%.

And the Z score?
Its Z score is 0.16.

What does the source list for `O=C(Oc1ccc2c(Cc3ccccc3)noc2c1)c1ccccc1F`?
% Inhibition: -6%; Z score: 0.63

Which “% Inhibition” value does the source give for `C[C@@H](C(=O)Nc1ccc2c(c1)CCCCC2)n1cnc2c(N)ncnc21` here?
Its value is 9%.

What about the Z score of the same molecule?
Its Z score is -1.17.

`O=C(O)CC[C@@H]1CN(Cc2ccc3ccccc3c2)CC[C@@H]1N1CCN(c2ccccc2F)CC1` was tested. Which “% Inhibition” value did it give?
Its value is 11%.

And the Z score?
The Z score was -1.53.

Which results are given for `CCN(C(=O)[C@H]1CCOC1)c1ccc(C(F)(F)F)cc1`?
% Inhibition: 36%; Z score: -5.22

What does the source list for `CCCOc1cc(OC)ccc1C(=O)Nc1cc(C(=O)NCC2CC2)ccc1C`?
% Inhibition: 0%; Z score: 0.02

Which results are given for `NC(=O)[C@@H]1CN(c2cc(C(=O)NC3CC3)c3ccccc3n2)CCO1`?
% Inhibition: -12%; Z score: 1.6

For `CN(CC1(C)CCOCC1)C(=O)CCc1c[nH]c2ccccc12`, which “% Inhibition” value is on record?
The value was 5%.

And the Z score?
Its Z score is -0.79.

Which “% Inhibition” value does the source give for `CCC1(CC)CN(C(=O)CC2(O)CCCC2)CC[S@@+]1[O-]` here?
Its value is -9%.

And the Z score?
Its Z score is 1.47.

What does the source list for `CCc1ccnc(C(=O)NCCc2nc3c(s2)COCC3)c1`?
% Inhibition: -1%; Z score: 0.19

Which “% Inhibition” value does the source give for `CC(C(=O)N1Cc2cncnc2[C@@H](C)C1)=C1CCCC1` here?
Its value is -7%.

What about the Z score of the same molecule?
Its Z score is 1.09.

How did the “% Inhibition” value turn out when `O=C1C[C@H](c2ccc(C(F)(F)F)cc2)c2cnn(Cc3ccc4c(c3)OCO4)c2N1` was run?
The value was -12%.

And the Z score?
The Z score was 1.51.

How did the “% Inhibition” value turn out when `CCOc1ccc([C@H]2CC(=O)Nc3c(S(=O)(=O)c4cccc(C)c4)csc32)cc1` was run?
Its value is -14%.

What about the Z score of the same molecule?
Its Z score is 1.43.
